According to patent US20220242962A1 (APTEVO RESEARCH AND DEVELOPMENT, published 2022):

T1: Full-length Human OX40 (human, UniProt P43489 29-277)
T1 sequence: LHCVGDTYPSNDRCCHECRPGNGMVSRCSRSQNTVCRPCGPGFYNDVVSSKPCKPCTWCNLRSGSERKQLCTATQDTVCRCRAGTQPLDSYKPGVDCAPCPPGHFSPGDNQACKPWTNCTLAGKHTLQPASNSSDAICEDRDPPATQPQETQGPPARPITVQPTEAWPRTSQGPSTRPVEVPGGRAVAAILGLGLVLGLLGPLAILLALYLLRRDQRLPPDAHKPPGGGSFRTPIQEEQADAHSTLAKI

T2: Full-length Cyno OX40 (cynomolgus monkey, UniProt P43489 29-277 (human entry))
T2 construct: on CHO-K1SV cells; also called OXF004; cynomolgus OX40
T2 chain: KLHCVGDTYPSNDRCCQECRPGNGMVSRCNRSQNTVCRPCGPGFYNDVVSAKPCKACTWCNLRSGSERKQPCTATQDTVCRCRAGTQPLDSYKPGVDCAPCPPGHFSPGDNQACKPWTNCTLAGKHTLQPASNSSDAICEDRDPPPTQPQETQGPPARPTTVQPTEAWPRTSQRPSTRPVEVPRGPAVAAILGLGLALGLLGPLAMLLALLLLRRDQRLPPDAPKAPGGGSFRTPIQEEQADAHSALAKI

T3: Human OX40 ECD-AFH (human)
T3 construct: ECD'; entry includes the C-terminal tags; also called OXF003; Human OX40 ECD-avi-flag-his
T3 chain: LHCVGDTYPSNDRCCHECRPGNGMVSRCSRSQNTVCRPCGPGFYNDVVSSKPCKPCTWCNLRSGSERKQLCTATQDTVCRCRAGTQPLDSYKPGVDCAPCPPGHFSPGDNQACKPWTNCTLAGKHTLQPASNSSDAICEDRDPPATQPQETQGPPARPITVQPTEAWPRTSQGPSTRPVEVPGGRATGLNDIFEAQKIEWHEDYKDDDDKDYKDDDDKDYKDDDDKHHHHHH

T4: Full-length Cyno 4-1BB (cynomolgus monkey, UniProt Q07011 24-255 (human entry))
T4 construct: on Jurkat or CHO cells; also called FOB006; cynomolgus 4-1BB
T4 chain: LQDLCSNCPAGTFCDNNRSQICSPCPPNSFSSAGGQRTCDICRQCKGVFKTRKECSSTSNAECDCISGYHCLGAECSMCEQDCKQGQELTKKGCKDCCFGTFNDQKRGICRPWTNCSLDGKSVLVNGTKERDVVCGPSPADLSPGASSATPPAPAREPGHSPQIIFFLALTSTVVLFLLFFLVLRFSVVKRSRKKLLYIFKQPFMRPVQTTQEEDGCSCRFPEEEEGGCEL

T5: Cyno 4-1BB ECD-AFH (cynomolgus monkey)
T5 construct: entry includes the tags; also called FOB004; Cyno CD137 ECD-avi-flag-his
T5 chain: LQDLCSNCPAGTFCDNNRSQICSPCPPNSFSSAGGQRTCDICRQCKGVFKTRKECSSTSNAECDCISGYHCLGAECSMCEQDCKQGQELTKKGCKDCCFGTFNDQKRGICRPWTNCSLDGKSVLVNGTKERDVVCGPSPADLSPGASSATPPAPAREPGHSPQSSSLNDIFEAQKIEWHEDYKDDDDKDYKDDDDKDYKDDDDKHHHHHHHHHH

B1: OXF01099 (Fc fusion)
chain: [sequence of human IgG1 Fc with changes and a few adjoining residues omitted]GGSPSSYVLTQPPSVSVAPGQTARITCGGNNIGSKSVNWFQQKPGQAPVLVVYDDSGRPSGIPERFSGSTSGNTATLTISRVEAGDEADYYCQVWDSSSDHVVFGGGTKLTVLGGGGSGGGGSGGGGSGGGGSQVQLVESGGGVVQPGRSLRLSCAASGFTLSYYGMHWVRQAPGKGLEWVAVISHDGSDKYYADSVKGRFTISRDNSKNTLYLQMNSLRAEDTAVYYCSNDQFDPWGQGTLVTVSSR
notes: wtFc-anti-OX40 scFv; germlining mutations with H40N
B2: OXF01115 (Fc fusion)
chain: [sequence of human IgG1 Fc with changes and a few adjoining residues omitted]GGSPSSYVLTQPPSVSVAPGQTARITCGGNNIGSKSVNWFQQKPGQAPVLVVYDDSGRPSGIPERFSGSTSGNTATLTISRVEAGDEADYYCQVWDSSSDHVVFGGGTKLTVLGGGGSGGGGSGGGGSGGGGSQVQLVESGGGVVQPGRSLRLSCAASGFTLSYYGMHWVRQAPGKGLEWVAAISHDGSDKYYADSVKGRFTISRDNSKNTLYLQMNSLRAEDTAVYYCSNDQFDPWGQGTLVTVSSR
notes: wtFc-anti-OX40 scFv; germlining mutations with H40N and V55A
B3: OXF01122 (Fc fusion)
chain: [sequence of human IgG1 Fc with changes and a few adjoining residues omitted]GGSPSSYVLTQPPSVSVAPGQTARITCGGNNIGSKSVHWFQQKPGQAPALVVYDDSGRPSGIPERFSGSTSGNTATLTISRVEAGDEADYYCQVWDSSSDHVVFGGGTKLTVLGGGGSGGGGSGGGGSGGGGSQVQLVESGGGVVQPGRSLRLSCAASGFTLSYYGMHWVRQAPGKGLEWVAVISHDGSDKYYADSVKGRFTISRDNSKNTLYLQMDSLRAEDTALYYCSNDQFDPWGQGTLVTVSSR
notes: monospecific wild-type IgG1 Fc with anti-OX40 scFv at its C-terminus (wtFc-anti-OX40 scFv); also called OXF01122 (Parent); OXF01022
B4: FOB01143 (Fc fusion)
chain: [sequence of human IgG1 Fc with changes and a few adjoining residues omitted]GGGGSGGGGSGGGGSPSEVQLVQSGAEVKKPGSSVKVSCKASGYTFTSYWINWVRQAPGQGLEWIGNIYPGSSTTNYNEKFKSRATLTVDTSTSTAYMELSSLRSEDTAVYYCASFSDGYYAYAMDYWGQGTLVTVSSGGGGSGGGGSGGGGSGGGGSEIVMTQSPGTLSLSPGERATLSCRASQDISNYLNWYQQKPGQAVRLLIYYTSRLHSGIPDRFSGSGSGTDYTLTISRLEPEDFAVYFCQQGYTLPYTFGQGTKVEIKR
notes: wild-type IgG1 Fc with anti-4-1BB scFv (VH-VL) at its C-terminus; also called FOBW006HLH20; FOB01143 (Mouse)
B5: FOB01188 (Fc fusion)
chain: [sequence of human IgG1 Fc with changes and a few adjoining residues omitted]GGGGSGGGGSGGGGSPSEVQLVQSGAEVKKPGASVKVSCKASGYTFTSYWMNWVRQAPGQGLEWMGNIYPGSSTTNYAQKFQGRVTMTVDTSTSTVYMELSSLRSEDTAVYYCASFSDGYYAYAMDYWGQGTLVTVSSGGGGSGGGGSGGGGSGGGGSEIVMTQSPATLSLSPGERATLSCRASQDISNYLNWYQQKPGQAVRLLIYYTSRLHSGIPARFSGSGSGTDYTLTISSLQPEDFAVYFCQQGYTLPYTFGQGTKVEIKR
notes: wild-type IgG1 Fc with anti-4-1BB scFv (VH-VL) at its C-terminus; also called FOBW0061HLH26; FOB01188 (Partially Humanized)

What was measured:
Full-length Human OX40 [1] = molecular target: T1, Full-length Human OX40; test: cell-based or functional assay
Full-length Human OX40 [2] = molecular target: T1, Full-length Human OX40; test: flow cytometry, CHO cells expressing human OX40
Method: (§1) Mean fluorescence intensity (MFI) of bound molecules on cells was determined after exclusion of doublets.

Full-length Cyno OX40 = molecular target: T2, Full-length Cyno OX40; test: flow cytometry, CHO cells expressing cynomolgus OX40
Method: as §1

Human OX40 ECD-AFH = molecular target: T3, Human OX40 ECD-AFH; test: SPR, construct captured, monomeric ECD as analyte
Method: (§2) Mouse anti-human IgG (GE, BR-1008-39) at 25 μg/ml in 10 mM sodium acetate pH 5.0 was immobilized at a density of ˜10,000 response units (RU) onto each flow cell of a CM5 research-grade sensor chip (GE) by standard amine coupling chemistry. Each binding protein at approximately 100 nM in HBS-EP+ with 0.2% BSA buffer was captured in a flow cell with the immobilized anti-human IgG at a flow rate of 10 μL/min for 20 seconds, leaving one flow cell surface unmodified as the reference. Using a single-cycle kinetics mode, five different concentrations of ECD were sequentially injected through each flow cell at 30 μL/min for 300 seconds followed by a 600 second dissociation period. Regeneration was achieved by injection of 3 M MgCl₂ at a flow rate of 30 μL/min for 30 seconds followed by HBS-EP+ with 0.2% BSA buffer stabilization for 1 min.
(§3) Sensorgrams obtained from kinetic SPR measurements were analyzed by the double subtraction method. The signal from the reference flow cell was subtracted from the analyte binding response obtained from flow cells with immobilized or captured ligands. Buffer reference responses were then averaged from multiple injections. The averaged buffer reference responses were then subtracted from analyte binding responses, and the final double-referenced data were analyzed with Biacore T200 Evaluation software (2.0, GE), globally fitting data to derive kinetic parameters. All sensorgrams were fitted using a simple one-to-one binding model.

Full-length Cyno 4-1BB = molecular target: T4, Full-length Cyno 4-1BB; test: flow cytometry, cells expressing cynomolgus 4-1BB (Jurkat in text, CHO in table head)
Full-length Human 4-1BB [3] = molecular target: T6, Full-length Human 4-1BB (human, UniProt Q07011 24-255); test: flow cytometry, cells expressing human 4-1BB (Jurkat in text, CHO in table head)
T6 construct: also called FOB005; CD137

Full-length Human 4-1BB [4] = molecular target: T6, Full-length Human 4-1BB; test: cell-based or functional assay
Cyno 4-1BB ECD-AFH = molecular target: T5, Cyno 4-1BB ECD-AFH; test: SPR, construct captured, monomeric ECD as analyte
Method: as §2, §3

Human 4-1BB ECD-AFH = molecular target: T7, Human 4-1BB ECD-AFH (human); test: SPR, construct captured, monomeric ECD as analyte
T7 construct: entry includes the tags; also called FOB003; HUMAN CD137 ECD-AVI-FLAG-HIS
Method: as §2, §3

| Binder | OX40 Reporter Assay EC50 (Full-length Human OX40 [1]) | OX40 Reporter Assay Max induction (Full-length Human OX40 [1]) | EC50 (Full-length Human OX40 [2]) | max MFI (Full-length Human OX40 [2]) | EC50 (Full-length Cyno OX40) | max MFI (Full-length Cyno OX40) | Kd (Human OX40 ECD-AFH) | koff (Human OX40 ECD-AFH) | kon (Human OX40 ECD-AFH) | EC50 (Full-length Cyno 4-1BB) | EC50 (Full-length Human 4-1BB [3]) | Reporter Assay CD64/CHO EC50 (Full-length Human 4-1BB [4]) | Kd (Cyno 4-1BB ECD-AFH) | koff (Cyno 4-1BB ECD-AFH) | kon (Cyno 4-1BB ECD-AFH) | Kd (Human 4-1BB ECD-AFH) | koff (Human 4-1BB ECD-AFH) | kon (Human 4-1BB ECD-AFH) |
| --- | --- | --- | --- | --- | --- | --- | --- | --- | --- | --- | --- | --- | --- | --- | --- | --- | --- | --- |
| B1 | 0.182 nM | 1.43e+06 | 4 nM | 14600 MFI | 4 nM | 13300 MFI | 0.3 nM | 0.00014 s⁻¹ | 530000 M⁻¹ s⁻¹ |  |  |  |  |  |  |  |  |  |
| B2 | 0.088 nM | 1.31e+06 | 2.1 nM | 14800 MFI | 1.8 nM | 17000 MFI | 0.7 nM | 0.00026 s⁻¹ | 390000 M⁻¹ s⁻¹ |  |  |  |  |  |  |  |  |  |
| B3 | 0.089 nM | 1.52e+06 | 2.2 nM | 13800 MFI | 1.8 nM | 15300 MFI | 0.6 nM | 0.00021 s⁻¹ | 340000 M⁻¹ s⁻¹ |  |  |  |  |  |  |  |  |  |
| B4 |  |  |  |  |  |  |  |  |  | 2.4 nM | 1.2 nM | 0.028 nM | 89 nM | 0.0039 s⁻¹ | 44000 M⁻¹ s⁻¹ | 38 nM | 0.0026 s⁻¹ | 68000 M⁻¹ s⁻¹ |
| B5 |  |  |  |  |  |  |  |  |  | 2.2 nM | 1.4 nM | 0.028 nM | 61 nM | 0.0032 s⁻¹ | 53000 M⁻¹ s⁻¹ | 25 nM | 0.0021 s⁻¹ | 82000 M⁻¹ s⁻¹ |
